# Experimental data taken from PMC12040169 (PLOS Biology, 2025).
# The other results are listed elsewhere or left out.
# Test system: T1, C. trachomatis L2/434/Bu expressing GFP (CTL2-GFP)
# T1 construct: L2/434/Bu GFP intracellular growth in HeLa cells
# Set-up: species or system HeLa; C. trachomatis total inclusion area by high-content imaging, normalised to DMSO
# Conditions: total inclusion area; 28.5 h, 10 µM; inhibitor
# How it was run: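 High-content imaging followed the bulk GFP/resorufin measurement: fixed, Hoechst-stained cells were scored for GFP inclusions and host nuclei per well. Total inclusion area and count served as growth proxies, nuclei number as the viability proxy. MIC calculation matched the bulk assay.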
row,SMILES,% of control remaining
1,O=C(CNS(=O)(=O)c1ccc(Br)cc1)N1CCN(Cc2ccc3c(c2)OCO3)CC1 [CBK074358],83.8213
2,O=S(=O)(NCC1COc2ccccc2O1)c1cc(Cl)sc1Cl (centres unmarked) [CBK057394],90.8597
3,COc1cccc2cc(C(=O)NCCc3ccc(O)cc3)oc12 [CBK149802],83.1585
4,N#Cc1ccc(CN2C(=O)c3ccccc3C2=O)cc1 [CBK029022],100.151
5,CCCn1cnc2cc(NC(=O)c3ccc(=O)n(CC(=O)N(C)c4ccccc4)c3)ccc21 [CBK286026],79.4614
6,CC1CN(Cc2cccc(CNc3ncccc3C#N)c2)CCO1 (centres unmarked) [CBK303994],48.1414
7,CN(Cc1cnn(C)c1)c1nccc(N2CCN[C@H]3CS(=O)(=O)C[C@H]32)n1 [CBK306964],87.5781
8,c1ccc2c(c1)nc1n2CCN1CCN1CCCCC1 [CBK278283C],98.3418
9,CC(C)Oc1ncc(C(=O)NCCCC(=O)O)cc1Cl [CBK305192],66.1294
10,O=C(CN1CCN(CCN2C(=O)c3cccc4cccc(c34)C2=O)CC1)c1ccc(Cl)cc1 [CBK265363],95.5387
11,CC(C)c1cc(C(=O)N2C[C@H](C)N(Cc3ccco3)C[C@@H]2C)on1 [CBK283053],82.2758
12,Cc1cc(S(=O)(=O)NCC(C)n2nc(C)c(C)c2C)ccc1F (centres unmarked) [CBK282010],81.065
13,CCN1CCN(C(=O)c2ccc(C)c(S(=O)(=O)Nc3cccc(C)c3)c2)CC1 [CBK268226],86.1874
14,Cc1ccc(CN2CCCC(n3c(=O)oc4ccccc43)C2)o1 (centres unmarked) [CBK284871],112.875
15,Nc1ncc(-c2ccc(-c3ccccc3)cc2)nc1NC1CCCCC1 [CBK063572],108.035
16,CN(C)[C@@H]1CN(Cc2ccc(O)cc2)C[C@H]1c1cn(C)c2ccccc12 [CBK284952],95.7825
17,Cc1cc2cc(C(F)(F)F)nc-2n(CC(=O)NC2CC2)c1 [CBK282888],71.7324
18,Cc1ccc(Oc2c([N+](=O)[O-])ncn2C)c(Br)c1 [CBK002819],45.7174
19,O=C(O)c1ccc(Cl)c2c1C1C=CCC1C(c1ccccn1)N2 (centres unmarked) [CBK287087],110.904
20,CCC(C)Oc1ccccc1OCCN1C(=O)NC(C)(C)C1=O (centres unmarked) [CBK267362],128.854
21,O=C(c1ccc2c(c1)CCCO2)N(Cc1ccccn1)CC1CCCO1 (centres unmarked) [CBK307488],59.7319
22,CN1CCN(c2ccnc3cc(Cl)ccc23)CC1 [CBK066867C],83.672
23,Nc1ncc(-c2cccc(OC(F)(F)F)c2)nc1-c1ccc(C(=O)N2CCOCC2)cc1 [CBK064091],119.716
24,CN1CCCCC1CC(=O)Nc1ccc2ncn(C)c2c1 (centres unmarked) [CBK281747],109.82
25,COc1cc2c(cc1OC)CN(C(=O)C1CCN(C)CC1)CC2 [CBK122744],107.053

row,SMILES,% of control remaining
1,Cc1[nH]c2ccccc2c1/C=N/c1cccc2c(/N=C/c3c(C)[nH]c4ccccc34)cccc12 [CBK261227],92.8756
2,COC(=O)c1sc2ncccc2c1NS(=O)(=O)c1cc(Br)ccc1OC [CBK049971],96.5226
3,O=C(CSc1ncn(-c2ccccc2)n1)c1ccc(Br)cc1 [CBK027014],108.787
4,CCc1nnc(Sc2ccc(C=O)cc2[N+](=O)[O-])[nH]1 [CBK268876],90.2235
5,CCOc1ccc(CN2CCN(C(=O)c3cccc(C#N)c3)CC2)cc1 [CBK304527],23.506
6,Cc1ccc(Cn2c(=N)n(CC(=O)c3ccc(Br)cc3)c3ccccc32)cc1 [CBK262979B],59.0741
7,O=C(N/N=C/c1ccc(O)cc1O)c1[nH]c2ccc([N+](=O)[O-])cc2c1-c1ccccc1 [CBK263328],1.7212
8,O=C(CN1C2CCC1CC(O)(c1ccccc1F)C2)NCC1CC1 (centres unmarked) [CBK281942],101.045
9,COCCn1c(CO)nnc1[C@H]1C[C@@H](NC(=O)c2ccc(C)s2)C1 [CBK307063],75.4641
10,Cn1ccnc1C1CCN(C(=O)NCc2cccc(F)c2)CC1 [CBK304606],36.9353
11,CC1NCCc2c1sc1ccccc21 (centres unmarked) [CBK026032C],62.5926
12,O=C(c1cn2cc(-c3cccs3)n(CC3CC3)c(=O)c2n1)N1CC(O)C1 [CBK306979],108.399
13,Oc1ccccc1-c1n[nH]c(=S)n1-c1ccc(OC(F)(F)F)cc1 [CBK288384],65.3372
14,O=C(Cc1ccccc1[N+](=O)[O-])NCCCN1CCOCC1 [CBK265520],110.84
15,CC(Sc1nc2ccccc2[nH]1)C(=O)Nc1ccc(S(N)(=O)=O)cc1 (centres unmarked) [CBK266128],106.212
16,NC(=O)CSc1nc(NCc2ccccc2)nc(N2CCOCC2)n1 [CBK268923],92.5926
17,O=C(NCCn1nc(-c2cccs2)ccc1=O)C1CCCCC1 [CBK283837],66.7184
18,O=C(Nc1nnc(-c2ccco2)o1)C(c1ccccc1)c1ccccc1 [CBK287424],89.1894
19,COc1ccc(/C=N/NC(=O)c2cc[nH]n2)cc1CSc1nc2ccccc2s1 [CBK263734],94.4194
20,CCCc1[nH]nc(O)c1Cc1ccc(F)cc1F [CBK075015],78.9191
21,Cc1ccc(C(=O)N2CCN(c3ccc(NC(=O)c4ccc(-c5cccc([N+](=O)[O-])c5)o4)cc3)CC2)cc1 [CBK266355],104.066
22,Cn1c(SCc2cc(-c3ccc(Cl)cc3)no2)nnc1-c1ccco1 [CBK295193],120.198
23,CC(C)(C)c1ccc(N(C2CCNCC2)S(=O)(=O)c2ccc(Cl)cc2Cl)cc1 [CBK165067T],9.149
24,NC(=O)C1(N2CCCCC2)CCN(C(=O)CSc2nnc(-c3ccccc3)n2C2CCCCC2)CC1 [CBK266219],94.0928
25,Cc1cccc2c3c([nH]c12)C1(CCCN(C/C=C\c2ccccc2)C1)N(C=O)CC3 (centres unmarked) [CBK040265],88.8032
